PubChem BioAssay (Tox21)
This list was built around the results that the source calls inconclusive (neither active nor inactive); the mix of calls is not that of the screen. Entries that show only a call come without a potency. Potencies beside an inconclusive call are fits to weak or partial responses and may not hold up. The source made the active and inactive calls. The call rests on the fitted dose curve; in most records, active means well fitted activation curve with a large enough effect in the signal ratio in the repeat runs (not every such curve was filed as active); inconclusive means weak or mixed curves; inactive means flat fitted curve, though single readings scatter; the % refers to the signal ratio.

Assay: qHTS assay to identify small molecule agonists of the hypoxia (HIF-1) signaling pathway (AID 1224846)
Details: HRE-bla ME-180 cells, beta-lactamase ratio, 17 h; series mostly up to 76.8 µM
Source text: U.S. Tox21 Program National Center for Advancing Translational Sciences [NCATS] NIH Chemical Genomics Center [NCGC] U.S. Environmental Protection Agency [EPA] National Institutes of Environmental Health Sciences [NIEHS] National Toxicology Program [NTP] U.S. Food and Drug Administration [FDA] Tox21 Assay Overview: Hypoxia-inducible factor-1 (HIF-1) is the major hypoxia-regulated transcription factor that controls cellular responses to low oxygen concentration. HIF-1 is composed of two subunits: hypoxia responsive HIF-1-alpha and constitutively expressed HIF-1-beta, which is also known as aryl hydrocarbon receptor nuclear translocator. During hypoxic conditions, HIF-1-alpha heterodimerizes with HIF-1-beta and translocates into the nucleus where the HIF-1 complex binds to the hypoxia-response element (HRE) and activates expression of target genes such as VEGF (vascular endothelial growth factor). The HIF-1 pathway is essential to normal growth and development, and is involved in the pathophysiology of cancer, inflammation, and ischemia. Using a beta-lactamase reporter-gene under control of the hypoxia response element, a cell-based assay [CellSensor(TM) HRE-bla ME-180 from Life Technologies, Carlsbad, CA] was used to measure hypoxia-induced signaling. Tox21 10K library compounds were measured for their ability to induce the reporter gene activity.
Tox21 Assay Protocol Summary: HRE-bla ME-180 cells were dispensed at 2,000 cells per well in 6 uL of assay medium containing 0.5% dialyzed FBS into black wall/clear-bottom 1536-well plates using a Multidrop Combi (Thermo Scientific, Waltham, MA) dispenser. After the assay plates were incubated at 37C and 5% CO2 for 5 hrs, 23 nL of compounds dissolved in DMSO, positive controls or DMSO only was transferred to each well of the assay plate using a Pintool station (Kalypsys, San Diego, CA). The assay plates were incubated at 37C and 5% CO2 for 17 hrs. One uL of LiveBLAzerTM B/G FRET substrate (CCF4-AM) (Life Technologies) was added to each well using a Flying Reagent Dispenser (Aurora Discovery, San Diego, CA).
Potency means the concentration at half of the fitted maximal effect; tags describe the fitted curve by direction and shape or compound fluorescence and quenching.

Row | Compound | Potency
1 | COC(=O)c1ccc([N+](=O)[O-])cc1 | inactive
2 | COCCCOc1cc(C[C@@H](C[C@H](N)[C@@H](O)C[C@H](C(=O)NCC(C)(C)C(N)=O)C(C)C)C(C)C)ccc1OC | inactive
3 | Cc1cccc2nccnc12 | inactive
4 | CCC(=O)OC(C)c1ccccc1 (stereo not given) | inactive
5 | C=CCS(=O)(=O)O | inactive
6 | Cc1ncc(CO)c(C=O)c1O | inactive
7 | O=c1c2ccccc2nnn1CCl | inactive
8 | CC(C)(C)C(=O)/C=C/c1ccc(Cl)cc1 | inactive
9 | OCCOc1ccc(OCCO)cc1 | inactive
10 | O=CN1CCOCC1 | inactive
11 | CC/C=C\CCCCCCCCCCOC(C)=O | inconclusive: 24.5 µM [falling, single point]
12 | COC(=O)c1ccc(C(=O)O)cc1 | inactive
13 | COC(=O)c1ccc(C=O)cc1 | inactive
14 | CCOC(=N)CC(=O)OCC | inconclusive: 30.9 µM [rising, partial curve]
15 | C=C(C)[C@H]1CC=C(C)CC1 | inactive
16 | CC(C)C(C)C | inactive
17 | CNC[C@H](O)c1cccc(O)c1 | inactive
18 | CCN1CCN(C(=O)N[C@@H](C(=O)N[C@@H]2C(=O)N3C(C(=O)O)=C(CSc4nnnn4C)CS[C@H]23)c2ccc(O)cc2)C(=O)C1=O | inactive
19 | Cc1cc(C)cc([N+](=O)[O-])c1 | inactive
20 | Cc1nc(C2CCCCC2)c(-c2ccc(S(N)(=O)=O)c(F)c2)o1 | inactive

Row | Compound | Potency
21 | COc1cc2c(cc1OC)-c1cc3ccc(OC)c(OC)c3c[n+]1CC2 | inconclusive: 49.4 µM [falling, partial curve]
22 | CC1(CO)CN(c2ccccc2)NC1=O (stereo not given) | inactive
23 | CCOC(=O)n1ccn(C)c1=S | inactive
24 | CCCCCCCCCOS(=O)(=O)O | inactive
25 | CC(C)(C)c1n[nH]c(=O)n(N)c1=O | inactive
26 | CCCC(C)CC (stereo not given) | inactive
27 | COc1ccc(C#N)cc1 | inactive
28 | c1ccc(-c2nc[nH]c2-c2ccccc2)cc1 | inconclusive: 10.7 µM [activator, single point]
29 | COc1ccc(CCC(C)=O)cc1 | inactive
30 | C[Si](C)(C)N[Si](C)(C)C | inactive
31 | O=C(OCCN1CCOCC1)c1cccnc1Nc1cccc(C(F)(F)F)c1 | inconclusive: 26.8 µM [falling, partial curve, poor fit]
32 | CC(C)CCO | inconclusive: 21.9 µM [single point]
33 | CCCCCOC(=O)COc1cc(N2C(=O)C3=C(CCCC3)C2=O)c(F)cc1Cl | inactive
34 | CCOc1ccccc1O | inactive
35 | CC(=O)Nc1cccc(C)c1 | inactive
36 | COC(=O)c1ccc(OC)cc1 | inactive
37 | C/C=C/CO | inactive
38 | CC(=O)Nc1ccccc1C | inactive
39 | C/C(=C(\CCO)SS/C(CCO)=C(\C)N(C=O)Cc1cnc(C)nc1N)N(C=O)Cc1cnc(C)nc1N | inactive
40 | C=CC(=O)N1CCOCC1 | inactive
